The results in this text go back to publication PMC4336329 (PLoS ONE, 2015).

Screen size: about 310,000 compounds; about 2,200 (0.71%) showed an effect of 50% or more. Effects have a minus sign here. This is one part of the list.

For this experiment, the target named is human ether-à-go-go-related gene (hERG) potassium channel (human, UniProt Q12809). Briefly: primary screen, population patch clamp on CHO cells stably expressing hERG.
human ether-à-go-go-related gene (hERG) potassium channel, sequence (Q12809 whole entry, looked up): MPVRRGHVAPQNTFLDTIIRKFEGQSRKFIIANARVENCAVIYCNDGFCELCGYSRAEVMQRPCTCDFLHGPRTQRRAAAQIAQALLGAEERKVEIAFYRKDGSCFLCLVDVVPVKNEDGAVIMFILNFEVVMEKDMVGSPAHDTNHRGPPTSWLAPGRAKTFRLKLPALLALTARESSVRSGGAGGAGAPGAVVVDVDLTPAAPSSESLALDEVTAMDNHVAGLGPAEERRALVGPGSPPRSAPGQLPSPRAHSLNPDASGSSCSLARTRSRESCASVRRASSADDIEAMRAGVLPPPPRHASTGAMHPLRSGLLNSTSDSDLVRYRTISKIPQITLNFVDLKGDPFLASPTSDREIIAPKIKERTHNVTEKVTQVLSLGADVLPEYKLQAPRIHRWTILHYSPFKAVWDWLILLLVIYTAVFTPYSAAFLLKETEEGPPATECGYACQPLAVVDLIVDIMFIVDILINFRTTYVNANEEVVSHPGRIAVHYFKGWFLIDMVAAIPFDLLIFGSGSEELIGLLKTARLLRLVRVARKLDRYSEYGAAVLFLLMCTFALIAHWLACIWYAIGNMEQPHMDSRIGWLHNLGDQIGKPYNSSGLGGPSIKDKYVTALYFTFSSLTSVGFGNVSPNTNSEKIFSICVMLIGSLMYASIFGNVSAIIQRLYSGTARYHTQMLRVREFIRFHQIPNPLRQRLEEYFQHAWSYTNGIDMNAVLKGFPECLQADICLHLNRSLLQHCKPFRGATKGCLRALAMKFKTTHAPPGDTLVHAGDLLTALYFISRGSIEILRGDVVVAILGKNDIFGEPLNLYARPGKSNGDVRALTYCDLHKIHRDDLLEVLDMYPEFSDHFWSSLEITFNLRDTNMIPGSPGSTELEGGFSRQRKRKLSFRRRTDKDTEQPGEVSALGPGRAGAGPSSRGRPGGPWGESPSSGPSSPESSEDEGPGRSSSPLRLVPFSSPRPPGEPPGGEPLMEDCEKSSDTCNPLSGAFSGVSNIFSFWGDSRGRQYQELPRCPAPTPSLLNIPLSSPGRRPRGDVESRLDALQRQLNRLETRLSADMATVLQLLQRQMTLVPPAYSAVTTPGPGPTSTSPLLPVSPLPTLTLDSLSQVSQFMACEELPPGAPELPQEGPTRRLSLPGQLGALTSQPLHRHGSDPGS
For the compound `CNC(=O)/C(=C\C=C\c1ccccc1)NC(=O)c1ccc([N+](=O)[O-])cc1`, the “hERG current change (%, negative = inhibition) at 1uM” value was -85%.

For the compound `COCCNC(=S)N1CCN(c2nc(-c3ccc(F)cc3)cs2)CC1`, the “hERG current change (%, negative = inhibition) at 1uM” value is listed as 11%.

On to `C=CCNC(=O)C1CCN(c2nc(C)cc(-c3ccccc3)n2)CC1`, for which the “hERG current change (%, negative = inhibition) at 1uM” value was -31.2%.

`O=S(=O)(NC12CC3CC(CC(C3)C1)C2)c1ccc(F)cc1`: the “hERG current change (%, negative = inhibition) at 1uM” value was -0.925%.

For `Cc1cccc(N2CCN(C(=O)NC(C)c3ccc(F)c(F)c3)CC2)c1C` (centres unmarked), the “hERG current change (%, negative = inhibition) at 1uM” value was -4.86%.

In the case of `COc1cccc(CC2(CO)CCCN(Cc3ccc(OC(F)F)cc3)C2)c1` (centres unmarked), the “hERG current change (%, negative = inhibition) at 1uM” value is -47.4%.

Consider `CNc1nc(NCCOC23CC4CC(CC(C4)C2)C3)nc(OCC(F)(F)F)n1`, for which the “hERG current change (%, negative = inhibition) at 1uM” value is listed as 9.75%.

`CCOC(=O)N1CCN(S(=O)(=O)c2ccc(C(=O)N(CCCN(C)C)c3nc4ccc(Cl)cc4s3)cc2)CC1.Cl`: the “hERG current change (%, negative = inhibition) at 1uM” value is listed as -1.29%.

Consider `CCCC(O)(c1ccc(OC)cc1)C(CN1CCOCC1)c1ccc(Cl)cc1.Cl` (centres unmarked), for which the “hERG current change (%, negative = inhibition) at 1uM” value was found to be 10.2%.

Take `COc1ccc(C2/C=C\CN(C(=O)C3CCCC3)[C@H](Cc3ccccc3)C(=O)N2Cc2ccc(F)cc2)cc1` (some centres unmarked): the “hERG current change (%, negative = inhibition) at 1uM” value was found to be 11.8%.

Turning to `CCOC(=O)N(NC(=O)C(O)(C(C)C)C(C)C)c1ccccc1`, the “hERG current change (%, negative = inhibition) at 1uM” value stood at 12.9%.

Take `CC(OC(=O)CN1C(=O)c2ccccc2C1=O)C(=O)NC1CCCC1` (centres unmarked): the “hERG current change (%, negative = inhibition) at 1uM” value came out at 3.48%.

`O=c1c2c3c(sc2nc2n1CCCCC2)CCC3`: the “hERG current change (%, negative = inhibition) at 1uM” value was 10.9%.

As for `CN(CCC(=O)Nc1ccc(Cl)cc1)Cc1ccccc1.Cl`, the “hERG current change (%, negative = inhibition) at 1uM” value is 2.99%.

On to `COc1cccc(NC(=O)N2C3CCCC2CC(NC(=O)C(C)(C)C)C3)c1` (centres unmarked), for which the “hERG current change (%, negative = inhibition) at 1uM” value came to 10.5%.

Take `CC1CCC(NC(=O)c2cc(S(=O)(=O)N(C)C)ccc2N2CCCC2)CC1` (centres unmarked): the “hERG current change (%, negative = inhibition) at 1uM” value amounted to 13.9%.

Consider `O=C(Nc1ccc(O)cc1)c1ccc(NC(=O)c2cccs2)cc1`, for which the “hERG current change (%, negative = inhibition) at 1uM” value is on record as 14.8%.

For the compound `COc1ccccc1Cn1c(=S)[nH]c2ccccc2c1=O`, the “hERG current change (%, negative = inhibition) at 1uM” value worked out at 23.1%.

As to `CC(=O)Nc1ccc(S(=O)(=O)NCc2ccc3c(c2)cc(C)n3C)cc1`, the “hERG current change (%, negative = inhibition) at 1uM” value is recorded as -0.906%.

Consider `Cc1ccc(S(=O)(=O)/N=C2\CN(C)C(=O)N2C)cc1`, for which the “hERG current change (%, negative = inhibition) at 1uM” value is reported as 5.41%.

With `CC(C)CCC(C(=O)NC(C)c1ccccc1)C(=O)NC(C)c1ccccc1` (centres unmarked), the “hERG current change (%, negative = inhibition) at 1uM” value was 14.5%.

For `CCOc1ccccc1C(=O)Nc1cc2c(cc1N1CCCC1)n(CC)c(=O)n2CC`, the “hERG current change (%, negative = inhibition) at 1uM” value is recorded as -3.41%.

As for `COc1ccc(C)cc1NC(=O)N1CCCc2ccccc21`, the “hERG current change (%, negative = inhibition) at 1uM” value stood at 15.7%.

Regarding `O=S(=O)(Cc1ccccc1Cl)N1CCCC1`, the “hERG current change (%, negative = inhibition) at 1uM” value stood at 5.84%.

Consider `N#Cc1nc(Nc2cccc(Cl)c2)c2ncn(C3CCCC3)c2n1`, for which the “hERG current change (%, negative = inhibition) at 1uM” value worked out at 14.3%.

Turning to `CC(C)(C)C(=O)Nc1ccccc1N1CCN(c2ccc(F)cc2)CC1`, the “hERG current change (%, negative = inhibition) at 1uM” value stood at 13.1%.

As to `Cc1cc2nnc(SC3CCCCN(C(=O)c4ccc(F)cc4)C3=O)n2c2ccccc12` (centres unmarked), the “hERG current change (%, negative = inhibition) at 1uM” value is 0.556%.

Consider `C=CCn1c(SCC(=O)c2ccc(CNC(C)=O)o2)nc2scc(C3CC3)c2c1=O`, for which the “hERG current change (%, negative = inhibition) at 1uM” value came to 4.5%.

In the case of `Cc1ccc(S(=O)(=O)N2CCN(C(=O)CCn3nc(C)c(C)c3C)CC2)cc1C`, the “hERG current change (%, negative = inhibition) at 1uM” value stood at 3.83%.

For `N#C/C(N)=C(/N)C#N`, the “hERG current change (%, negative = inhibition) at 1uM” value was determined as 12.6%.

Turning to `OCC[C@@H]1C[C@H](O)[C@@H](O)[C@@]2(OCCc3ccccc32)O1`, the “hERG current change (%, negative = inhibition) at 1uM” value was determined as 14.2%.

Turning to `CCN(CC(=O)Nc1ccc(OC)cc1)C(=O)c1oc2c(Cl)cccc2c1C`, the “hERG current change (%, negative = inhibition) at 1uM” value is 2.23%.

As for `COc1ccccc1NC(=O)CSc1nnnn1-c1ccc(C)cc1`, the “hERG current change (%, negative = inhibition) at 1uM” value is 9.73%.

Consider `CCCCCN(C(=O)CCCSc1nncs1)c1c(N)n(CCCC)c(=O)[nH]c1=O`, for which the “hERG current change (%, negative = inhibition) at 1uM” value was 19.1%.

As to `O=C(O)CCCC(=O)Nc1ccc(-n2ccc(C(F)(F)F)n2)cc1`, the “hERG current change (%, negative = inhibition) at 1uM” value is given as 15.7%.

For `CCn1cc(C(=O)NCc2ccccc2F)c(=O)c2ccc(C)nc21`, the “hERG current change (%, negative = inhibition) at 1uM” value came to 9.97%.

In the case of `O=C(NCCN1C(=O)S/C(=C\c2cccc(Cl)c2Cl)C1=O)C1=COCCO1`, the “hERG current change (%, negative = inhibition) at 1uM” value is 11.3%.

As to `CCn1cc(C(=O)N(C)Cc2ccc(OC(F)F)cc2)c(=O)c2ccc(C)nc21`, the “hERG current change (%, negative = inhibition) at 1uM” value is -33.5%.

Regarding `O=C(CSCCO)Nc1cc(C(F)(F)F)ccc1Cl`, the “hERG current change (%, negative = inhibition) at 1uM” value was -1.1%.

As for `CCn1c(SCC(=O)Nc2nncs2)nnc1-c1ccco1`, the “hERG current change (%, negative = inhibition) at 1uM” value is recorded as 15.5%.

For `COc1ccc(N(C)S(=O)(=O)c2cccc(C(=O)Nc3ccc4c(c3)OCCO4)c2)cc1`, the “hERG current change (%, negative = inhibition) at 1uM” value is 2.36%.

With `Cc1ccc(S(=O)(=O)N2CCN(C(=O)CSc3nccn3C)CC2)cc1`, the “hERG current change (%, negative = inhibition) at 1uM” value turned out to be 19.2%.

In the case of `Cc1ccc(-c2nc3ncccc3o2)cc1NC(=O)c1cccs1`, the “hERG current change (%, negative = inhibition) at 1uM” value worked out at 6.94%.

On to `COc1ccc(NC(=O)CC(NC(C)c2ccccc2)C(=O)O)cc1` (centres unmarked), for which the “hERG current change (%, negative = inhibition) at 1uM” value stood at 7.28%.
